Measurements from patent US11178870B2 (priority 2017, dated 2021).

Tests used:
[1] = system: Magnaporthe grisea; assay type: in vivo; conditions: class of control value, Table 7
[2] = system: Colletotrichum orbiculare; conditions: 250 ppm spray, 2.5 ml/pot; investigated 6 to 10 days after inoculation
[3] = system: Phytophthora infestans; assay type: in vivo; conditions: class of control value, Table 7

SMILES	Test A control value (blast on rice) [1]	Test H control value (anthracnose on cucumber) [2]	Test F control value (late blight on tomato) [3]
Cc1ccsc1-c1cc(Cl)c(=O)n(CC(F)F)c1-c1c(F)cccc1F [Compound 445]	H (H shows the control value more than 50%)	H (H shows the control value more than 50%)	L (L shows the control value of 50% or less)
Cn1c(-c2ccc(F)cc2Cl)c(-n2cc(Cl)cn2)cc(Br)c1=O [Compound 453]	H (H shows the control value more than 50%)	H (H shows the control value more than 50%)	L (L shows the control value of 50% or less)
Cn1c(-c2ccc(F)cc2F)c(-n2cc(F)cn2)ccc1=O [Compound 463]	L (L shows the control value of 50% or less)	H (H shows the control value more than 50%)	L (L shows the control value of 50% or less)
Cc1sccc1-c1cc(Cl)c(=O)n(C)c1-c1c(F)cccc1F [Compound 484]	H (H shows the control value more than 50%)	L (L shows the control value of 50% or less)	L (L shows the control value of 50% or less)
Cc1cnn(-c2cc(Br)c(=O)n(N)c2-c2ccc(F)cc2Cl)c1Cl [Compound 477]	H (H shows the control value more than 50%)	L (L shows the control value of 50% or less)	L (L shows the control value of 50% or less)
Cc1cc(F)ccc1-c1c(-n2ncc(C)c2Cl)cc(Cl)c(=O)n1C [Compound 512]	H (H shows the control value more than 50%)	H (H shows the control value more than 50%)	L (L shows the control value of 50% or less)
O=c1c(Br)cc(-c2cc(Br)sc2CBr)c(-c2c(F)cccc2F)n1CC(F)F [Compound 495]	H (H shows the control value more than 50%)	L (L shows the control value of 50% or less)	L (L shows the control value of 50% or less)
CCn1c(-c2ccc(F)cc2Cl)c(-c2ccsc2Cl)cc(Cl)c1=O [Compound 460]	H (H shows the control value more than 50%)	H (H shows the control value more than 50%)	L (L shows the control value of 50% or less)
